# PubChem BioAssay AID1346428 (National Center for Advancing Translational Sciences (NCATS), 2018)
# The campaign covered roughly 48,000 compounds. About 1,200 (2.5%) were called active. Not shown: some 2% with an inconclusive outcome.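 How the source made its calls: active means activation of at least 60% and not above a set upper limit (about 1 call in 100 departs from these limits); inconclusive means activation of 40% to 60%, or above that upper limit; inactive means activation under 40%.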 The list shows a part of the results.
# Target: Probable G-protein coupled receptor 32 (Homo sapiens) (UniProt O75388)
# Sequence of UniProt O75388 (O75388 whole entry, looked up): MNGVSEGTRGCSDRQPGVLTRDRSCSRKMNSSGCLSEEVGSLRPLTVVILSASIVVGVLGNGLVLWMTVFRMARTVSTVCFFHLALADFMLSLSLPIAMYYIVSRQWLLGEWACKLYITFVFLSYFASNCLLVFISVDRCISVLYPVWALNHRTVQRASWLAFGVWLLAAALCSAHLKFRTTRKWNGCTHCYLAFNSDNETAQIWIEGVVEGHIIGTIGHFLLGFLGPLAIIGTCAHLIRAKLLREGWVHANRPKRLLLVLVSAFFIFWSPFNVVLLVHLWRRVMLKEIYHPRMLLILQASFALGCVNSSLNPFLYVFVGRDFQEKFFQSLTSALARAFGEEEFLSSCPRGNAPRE
# Assay: qHTS for Agonists of Human Resolvin D1 Receptor DRV1; further: 0% is about no effect
# Conditions: CHO-K1 GPR32 beta-arrestin PathHunter luminescence, 90 min; at 76.9 µM; hits give high values; zero percent set by DMSO-only wells
# In short: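 Readings come from a cell-based beta-arrestin complementation format: CHO-K1 GPR32 stable cells (2,500/well) treated 90 min with compounds, then beta-Gal substrate added for 1 h before chemiluminescence imaging.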
row,Structure (SMILES),activation
1,COc1ccc(Cc2nc3c4cnn(-c5ccccc5Br)c4ncn3n2)cc1,inactive: -10.4%
2,Cc1cccc(OCC(=O)NCc2ccc3c(c2)CCN3C(=O)c2ccccc2)c1,inactive: -25.9%
3,COc1ccc(N2CCN(S(=O)(=O)c3c(C)nc4sc(C)cn4c3=O)CC2)cc1,inactive: -5.78%
4,COc1ccc(-c2noc(-c3ccc(N4CCOCC4)c([N+](=O)[O-])c3)n2)cc1OC,inactive: 0.748%
5,CCOCCCNC(=O)N1CCN(S(=O)(=O)c2ccc3c(ccn3C)c2)CC1,inactive: 6.82%
6,CCOC(=O)c1ccc(NS(=O)(=O)c2cc3c(cc2C)n(C)c(=O)c(=O)n3C)cc1,inactive: 17.7%
7,Cn1c(=O)c2c(SCC(=O)NCC3CCCO3)nc(-c3ccccc3F)nc2n(C)c1=O (configuration not stated),inactive: -4.7%
8,COc1ccc(CNc2nc(-c3ccc(OC)c(OC)c3)cc(C(F)(F)F)n2)cc1,inactive: -13.3%
9,CCCCSCCCNC(=O)CN1C(=O)COc2ccc(S(=O)(=O)N3CCCC3)cc21,inactive: -8.01%
10,CCOc1ccc(CNC(=O)c2cnc(SC)nc2CC)cc1,inactive: -10%
11,CCOc1ccc(NC(=O)CSc2oc(-c3cccs3)nc2S(=O)(=O)c2ccc(Cl)cc2)cc1,inactive: -4.2%
12,O=C(Cn1c(=O)n(-c2ccccc2)c(=O)c2ccc(C(=O)NCc3ccc4c(c3)OCO4)cc21)Nc1ccc(Br)cc1F,inactive: -4.88%
13,COc1ccc(NC(=O)Cn2c(=O)n(-c3ccccc3)c(=O)c3ccc(C(=O)NCc4ccc5c(c4)OCO5)cc32)cc1,inactive: -15%
14,Cc1cc(NC(=O)c2ccc(Cl)c(Cl)c2)ccc1-c1cc2ccccc2oc1=O,inactive: 13.7%
15,Cc1ccc(CNC(=O)CSc2nc3ccsc3c(=O)n2-c2ccc(C(=O)O)cc2)cc1,inactive: -13.2%
16,CCN(CCCNC(=O)c1cc2cc3cc(OC)ccc3nc2s1)c1ccccc1,inactive: -15.5%
17,CCCSc1ncc(Cl)c(C(=O)Nc2ccc(CC)cc2)n1,inactive: -24.4%
18,Oc1cccc(Nc2nc(-c3ccccc3)nc3ccccc23)c1,active: 60.6%
19,CC1(C)C(=O)N(CC(=O)Nc2ccc(OC(F)(F)F)cc2)c2ccccc21,inactive: -12.5%
20,O=C(CSC1=Nc2ccccc2C2=NC(CCC(=O)NC3CCCCC3)C(=O)N12)Nc1cccc(Cl)c1 (configuration not stated),inactive: -16.3%
21,COc1cccc(NC(=O)CCNS(=O)(=O)c2ccc3c(c2)CCCC(=O)N3)c1,inactive: 1.45%
22,CCOC(=O)c1c(C)[nH]c(C)c1S(=O)(=O)N(C)CC(=O)Nc1cc(Cl)ccc1OC,inactive: -37.1%
23,CCOC(=O)C1CCC(CN(Cc2c(Cl)cccc2Cl)S(=O)(=O)c2ccc(F)c(C)c2)CC1 (configuration not stated),inactive: -21.7%
24,NC(=O)C1(N2CCCCC2)CCN(C(=O)Nc2ccc(Cl)c(Cl)c2)CC1,inactive: -9.82%
25,Cc1ccc(C)c(N2CCN(C(=O)C3CCN(Cc4nc(-c5cccc(Cl)c5)oc4C)CC3)CC2)c1,inactive: 20.8%
26,COc1ccc(CNC(=O)c2cc3sccc3n2C)cc1,inactive: -8.31%

row,Structure (SMILES),activation
1,Cc1ccc2nc(SC(Cc3cc(Cl)ccc3Cl)C(=O)O)[nH]c2c1 (configuration not stated),inactive: 8.86%
2,COc1ccc(N2CCN(C(=O)c3cc4c(=O)n(Cc5cccs5)ccc4nc3C)CC2)cc1,inactive: -29.9%
3,Cc1cc(Cl)ccc1NC(=O)C1CCN(S(=O)(=O)c2ccc3[nH]c(=O)ccc3c2)CC1,inactive: -1.73%
4,COc1cccc(NC(=O)c2sc3nc(C)c(C(=O)Nc4ccc(C)cc4C)c(-c4ccc(Br)cc4)c3c2N)c1,inactive: 19.1%
5,Cc1cccc(Cn2c(=O)n(CCc3ccccc3)c(=O)c3sc4ccccc4c32)c1,inactive: -6.49%
6,Cc1ccc(CCNC(=O)CCSCc2ccccc2F)cc1,inactive: -25.5%
7,CN1C2CCC1CC(OC(c1ccccc1)c1ccccc1)C2 (configuration not stated),inactive: -6.32%
8,Cc1ccc(C2c3[nH]c4ccccc4c3CCN2C(=O)c2ccc(N(C)C)cc2)cc1 (configuration not stated),inactive: -34.3%
9,O=C(CCOc1ccccc1)N(Cc1cccnc1)c1nc2c(Cl)cccc2s1,inactive: 1.58%
10,CCOC(=O)c1cc(-c2ccccc2)nn1Cc1ccccc1,inactive: -10.1%
11,CCOC(=O)N1CCc2c(sc3c2c(=O)n(Cc2ccccc2)c(=O)n3CC(=O)Nc2ccccc2F)C1,inactive: -16%
12,COc1ccc(C)cc1NC(=O)C(CCSC)NS(=O)(=O)c1ccc2c(c1)oc(=O)n2C (configuration not stated),inactive: -16.9%
13,CCn1nnc2cc(C(=O)Nc3cccc(C(F)(F)F)c3)ccc21,inactive: 6.31%
14,Cc1ccc2oc(C(=O)Nc3c(C(=O)c4ccc(C)c(F)c4)oc4ccccc34)cc(=O)c2c1,inactive: -1.53%
15,O=S(=O)(Nc1c(F)cccc1F)c1ccc2c(c1)OCCO2,inactive: -3%
16,COc1ccc(CN(C(=O)Nc2ccccc2)c2ccccn2)cc1OC,inactive: -23.7%
17,CCOC(=O)c1c(C)[nH]c(CCC(=O)Nc2ccc(N(CC)CC)cc2C)c1C,inactive: 8.35%
18,CC(C)NC(=O)c1cnc2sc(N3CCCCCC3)nn2c1=O,inactive: -0.0224%
19,Cc1ccc(S(=O)(=O)N(Cc2nc(-c3ccc(Cl)cc3)no2)C2CCCCC2)cc1,inactive: -24.7%
20,COc1ccc(NC(=O)CCS(=O)(=O)c2nc(-c3cccs3)cc(C(F)(F)F)n2)cc1OC,inactive: -18.4%
21,COc1ccc(N(C(=O)/C=C\C(=O)Nc2ccc(Cl)cc2)C(C(=O)NCc2ccco2)c2ccc(C)cc2)cc1 (configuration not stated),inactive: -19.4%
22,COc1ccc(OC)c(S(=O)(=O)Nc2cc3c(cc2C)n(C)c(=O)c(=O)n3C)c1,inactive: 1.45%
23,CN(Cc1ccccc1)C(=O)CN1C(=O)CSc2ccc(S(=O)(=O)N3CCOCC3)cc21,inactive: -16.6%
24,COc1ccccc1NC(=O)Cn1c(=O)n(Cc2ccc3c(c2)OCO3)c(=O)c2oc3ccccc3c21,inactive: -22.8%
25,CCc1ccc(-c2cn3c(n2)sc2cc(C(=O)NCCc4ccc(OC)cc4OC)ccc23)cc1,inactive: -3.01%
26,O=C(c1noc2c1CCCCC2)N1CCN(c2ccc(Cl)cc2)CC1,inactive: -21.5%
